Reference: PubChem BioAssay AID720569 (National Center for Advancing Translational Sciences (NCATS), 2013)
Inconclusive results, whose numbers are uncertain, are shown with a selection of clear calls. Where the call is inconclusive, the potency comes from a doubtful curve fit. Active and inactive are the calls of the source. The call rests on the fitted dose curve; in most records, active means well fitted inhibition curve with a large enough effect; inconclusive means small, poorly fitted or top-dose-only effect; inactive means no such curve, though single readings can be large or run the other way.

test system: pyruvate kinase (Trypanosoma brucei); test: qHTS of Trypanosoma Brucei Inhibitors: Confirmatory Assay for Cherry-picked Compounds; settings: recombinant TbPYK, Kinase-Glo ATP luminescence; series mostly up to 76.9 µM; further: nearly all actives have a fitted effect of over 70% in size
In short: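 TbPYK in 50 mM TEA pH 7.2, 100 mM KCl, 10 mM MgCl2, 0.05% BSA, 0.01% Tween-20; reaction started with ADP (130 uM final), 45 min at room temperature. ATP formed read by Kinase-Glo Plus luminescence; concentration-effect curves fitted.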
Potency means the concentration at half of the fitted maximal effect; tags describe the fitted curve by direction and shape.

**Q.** With `Cn1cccc1C(=O)C(=O)Nc1cc(Cl)cc(Cl)c1` as the molecule, how does the Potency read?
**A.** inactive

**Q.** For `O=S(=O)(NCCC(c1ccc(F)cc1)c1ccco1)c1ccccc1` (stereo not given), which Potency is on record?
**A.** inactive

**Q.** For `COc1ccc(S(=O)(=O)N(C(C)=O)c2ccc3oc(=O)sc3c2)cc1`, which Potency is on record?
**A.** inconclusive: 14.1 µM [inhibitor, partial curve]

**Q.** How did the Potency turn out when `Cc1nc(SCc2ccc(O)c([N+](=O)[O-])c2)c([N+](=O)[O-])[nH]1` was run?
**A.** inconclusive: 0.891 µM [inhibitor, partial curve, poor fit]

**Q.** How did the Potency turn out when `Cc1ccc(/C=C/C(=O)NCCc2ccccc2)o1` was run?
**A.** inconclusive: 50.1 µM [inhibitor, single point]

**Q.** With `CCOC(=O)c1ccc(NC(=O)c2sc3nc(N4CCOCC4)c4c(c3c2N)CCCC4)cc1` as the molecule, how does the Potency read?
**A.** inconclusive: 15.8 µM [inhibitor, partial curve, poor fit]

**Q.** For `Cc1onc(-c2c(F)cccc2Cl)c1C(=O)N1CCCc2ccccc21`, which Potency is on record?
**A.** active: 8.91 µM

**Q.** With `CCCCCCC(=O)N(O)C1CC(=O)N(c2ccc(F)cc2)C1=O` (stereo not given) as the molecule, how does the Potency read?
**A.** inconclusive: 50.1 µM [inhibitor, single point]

**Q.** For `O=C(c1ccc2ncsc2c1)N1CCCCC1`, which Potency is on record?
**A.** inconclusive: 25.1 µM [inhibitor, partial curve]

**Q.** Which Potency does the source give for `CC1(C)CC(=O)C(CSC(=O)c2ccccc2)C(=O)C1` here?
**A.** active: 5.62 µM

**Q.** `Clc1ccc(N=c2ssnc2Cl)cc1` was tested. Which Potency did it give?
**A.** active: 7.94 µM

**Q.** With `Cc1ccc(-n2nnnc2C(Cl)(Cl)c2nnnn2-c2ccc(C)cc2)cc1` as the molecule, how does the Potency read?
**A.** active: 1.58 µM

**Q.** How did the Potency turn out when `Cn1c(=O)[nH]c(=O)c2c1nc(SCC(=O)O)n2CCc1ccccc1` was run?
**A.** inconclusive: 31.6 µM [inhibitor, single point]

**Q.** How did the Potency turn out when `CCOC(=O)c1sc(N/N=C/c2ccccc2)nc1C` was run?
**A.** active: 14.1 µM

**Q.** With `CN1C(=CC=C2C=C(I)C(=O)C(I)=C2)C(C)(C)c2ccccc21` as the molecule, how does the Potency read?
**A.** inconclusive: 5.01 µM [inhibitor, full curve]

**Q.** With `O=C(O)/C=C/C(=O)c1ccc2c(c1)NC(=O)CO2` as the molecule, how does the Potency read?
**A.** active: 15.8 µM

**Q.** Which Potency does the source give for `COC(=O)c1ccc(C2Nc3ccc(/C(C)=N/NC(=O)C(OC)c4ccccc4)cc3C3C=CCC32)cc1` (stereo not given) here?
**A.** inconclusive: 25.1 µM [inhibitor, partial curve]

**Q.** Which Potency does the source give for `CCOC1=CC2=C(C(=O)C(Cl)=CC2=O)[C@@H]2CN(S(=O)(=O)c3ccc(C)cc3)[C@@H](c3ccccc3)[C@H]12` here?
**A.** active: 1.41 µM

**Q.** Which Potency does the source give for `NS(=O)(=O)c1ccc(N=Nc2c[nH]c(=O)c(O)c2)cc1` here?
**A.** inconclusive: 31.6 µM [inhibitor, partial curve]

**Q.** With `CCN(CC)c1ccc(N=C2C(=O)Nc3ccccc32)cc1` as the molecule, how does the Potency read?
**A.** inconclusive: 28.2 µM [inhibitor, single point]

**Q.** Which Potency does the source give for `CC(=O)C1=C(C)NC(SCC(=O)c2ccccc2)=C(C#N)C1CC(C)C` (stereo not given) here?
**A.** inconclusive: 31.6 µM [inhibitor, single point]

**Q.** For `CCN(CC)C(=S)Sc1c(-c2ccccc2)c2cc(Cl)ccc2[nH]c1=O`, which Potency is on record?
**A.** inconclusive: 6.31 µM [inhibitor, partial curve]

**Q.** How did the Potency turn out when `Cc1cc(C2=NNC(=Nc3ccccc3)SC2)c(C)n1C` was run?
**A.** inconclusive: 2.82 µM [inhibitor, partial curve, poor fit]

**Q.** How did the Potency turn out when `Oc1cc2c(cc1O)[C@H]1c3ccc(O)c(O)c3OC[C@@]1(O)C2` was run?
**A.** active: 1.26 µM

**Q.** With `O=C1C=CC2=C3c4cc(O)c(O)cc4CC3(O)COC2=C1O` (stereo not given) as the molecule, how does the Potency read?
**A.** active: 7.08 µM

**Q.** How did the Potency turn out when `COc1ccc(C(=O)N/N=C/c2ccc(N3CCOCC3)o2)cc1OC` was run?
**A.** inactive

**Q.** With `COc1cc(/C=C2\C(=O)ON=C2c2ccccc2)cc(OC)c1OC` as the molecule, how does the Potency read?
**A.** inconclusive: 35.5 µM [inhibitor, partial curve, poor fit]

**Q.** `N#CC1=C2SCN(c3ccccc3)CN2C(=O)CC1c1cccs1` (stereo not given) was tested. Which Potency did it give?
**A.** active: 2.82 µM

**Q.** For `O=C(Nc1ccccc1)c1ccc2nc(-c3ccco3)c(-c3ccco3)nc2c1`, which Potency is on record?
**A.** inconclusive: 28.2 µM [inhibitor, partial curve]

**Q.** `COc1ccc(-c2ccc(C(=S)N3CCN(C(C)=O)CC3)o2)cc1` was tested. Which Potency did it give?
**A.** active: 22.4 µM

**Q.** `O=C1C=CC(=O)N1c1ccc(Nc2ccccc2)cc1` was tested. Which Potency did it give?
**A.** inconclusive: 35.5 µM [inhibitor, single point]

**Q.** For `CC(C)(C)c1ccc(C(=O)N/C(=C\c2ccco2)C(=O)Nc2ccccc2C(=O)O)cc1`, which Potency is on record?
**A.** inconclusive: 39.8 µM [inhibitor, single point]

**Q.** Which Potency does the source give for `O=C1ON=C(c2ccc([N+](=O)[O-])cc2)/C1=C/c1ccccc1O` here?
**A.** inconclusive: 31.6 µM [inhibitor, partial curve]

**Q.** Which Potency does the source give for `Fc1cccc(Cc2c(-c3ccco3)nc3ccc(Br)cn23)c1` here?
**A.** inconclusive: 28.2 µM [inhibitor, partial curve]

**Q.** `CCOC(=O)c1ccc2c(c1)C1C=CCC1C(C(=O)OCC)N2` (stereo not given) was tested. Which Potency did it give?
**A.** inactive
